# Assay results from the supplement of paper PMC8728848.
# Some of the results follow.
# B1: PX9896A-bth-573-26-573 (Bacteroides thetaiotaomicron) (protein)
# chain: ETNNLKTKEDMYKYFGTSKSMLTHVYSYMPQGYQLFATSGGIFTEDRYSMRDCASDDGEFGAYADNIQNTNNGNWSPIKTYDDSWTLYRGIRAANSFIAEIAQVDFTRYEHDGQYTNWMKQLKYFPYEARVLRAHYFFELARRYGDIAMPLEVLTEEEANTIGKTPFSEVISFIVSECDDAANNLPDSYVNEPGAEIGRVTKGFAMAVKSKALLYAASKLHNPSMDTELWKKSAKAAIDIINTGLYSLDPQESANNLDSKEVVLMRINGDDSDFEMFNLPLRMTAGTRTSSLIPYSNYPSQNLVDAFETVNGYKVTLENTGWVCEDPAFDPQSPYENRDKRFYRAILANGMSFKDYTIETFKGGADDGIVSQGGSPTGYFLRKYIQEATSFEPGKEAVSKHHWVIYRYAETLLTYAESMVNAFNDVNYTDETYKYSALWAINEVRKNADMPLIPSMGKDEFMERLYNEWRVEFAFEDHRFWDVRRWKIADTTQRELYGVKIEKQADGTFNFYKNLYETRNWRDCMYLYPIPQSELYKNTNLNPQNTGW
# How the values were obtained:
# Test in all cases: glycan array binding signal (z-score within array); higher = stronger binding
# Conditions in all cases: glycan notation: IUPAC condensed, linker removed
# [1] = molecular target: Gal(b1-4)Glc
# In short: (§1)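 Glycan array data were curated from 3228 arrays in the Consortium for Functional Glycomics database and kept only where the protein sequence was available. Glycan names were converted to IUPAC-condensed notation, and columns mapping to the same glycan were averaged. The binding signal is a within-array Z-score, averaged across arrays of the same protein sequence at different concentrations or buffers and across linkers. Negative Z-scores can be read as non-binding.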
# [2] = molecular target: Gal(b1-4)Glc6S
# In short: as §1
# [3] = molecular target: Gal(b1-4)GlcNAc
# In short: as §1
# [4] = molecular target: Gal(b1-4)GlcNAc(a1-6)Gal(b1-4)GlcNAc
# In short: as §1
# [5] = molecular target: Gal(b1-4)GlcNAc(b1-2)Man
# In short: as §1
# [6] = molecular target: Gal(b1-4)GlcNAc(b1-2)Man(a1-3)Man(b1-4)GlcNAc(b1-4)GlcNAc
# In short: as §1
# [7] = molecular target: Gal(b1-4)GlcNAc(b1-2)Man(a1-3)[Gal(b1-4)GlcNAc(b1-2)Man(a1-6)]Man(b1-4)GlcNAc(b1-4)GlcNAc
# In short: as §1
# [8] = molecular target: Gal(b1-4)GlcNAc(b1-2)Man(a1-3)[Gal(b1-4)GlcNAc(b1-2)Man(a1-6)]Man(b1-4)GlcNAc(b1-4)[Fuc(a1-6)]GlcNAc
# In short: as §1
# [9] = molecular target: Gal(b1-4)GlcNAc(b1-2)Man(a1-3)[Gal(b1-4)GlcNAc(b1-2)Man(a1-6)][Gal(b1-4)GlcNAc(b1-4)]Man(b1-4)GlcNAc(b1-4)[Fuc(a1-6)]GlcNAc
# In short: as §1
# [10] = molecular target: Gal(b1-4)GlcNAc(b1-2)Man(a1-3)[Gal(b1-4)GlcNAc(b1-2)Man(a1-6)][GlcNAc(b1-4)]Man(b1-4)GlcNAc(b1-4)[Fuc(a1-6)]GlcNAc
# In short: as §1
# [11] = molecular target: Gal(b1-4)GlcNAc(b1-2)Man(a1-3)[GlcNAc(b1-2)Man(a1-6)]Man(b1-4)GlcNAc(b1-4)GlcNAc
# In short: as §1
# [12] = molecular target: Gal(b1-4)GlcNAc(b1-2)Man(a1-3)[GlcNAc(b1-4)][Gal(b1-4)GlcNAc(b1-2)Man(a1-6)]Man(b1-4)GlcNAc(b1-4)GlcNAc
# In short: as §1
# [13] = molecular target: Gal(b1-4)GlcNAc(b1-2)Man(a1-3)[Man(a1-6)]Man(b1-4)GlcNAc(b1-4)GlcNAc
# In short: as §1
# [14] = molecular target: Gal(b1-4)GlcNAc(b1-2)Man(a1-6)Man(b1-4)GlcNAc(b1-4)GlcNAc
# In short: as §1
# [15] = molecular target: Gal(b1-4)GlcNAc(b1-2)Man(a1-6)[GlcNAc(b1-2)Man(a1-3)]Man(b1-4)GlcNAc(b1-4)GlcNAc
# In short: as §1
# [16] = molecular target: Gal(b1-4)GlcNAc(b1-2)Man(a1-6)[Man(a1-3)]Man(b1-4)GlcNAc(b1-4)GlcNAc
# In short: as §1
# [17] = molecular target: Gal(b1-4)GlcNAc(b1-2)[Gal(b1-4)GlcNAc(b1-4)]Man(a1-3)[Gal(b1-4)GlcNAc(b1-2)Man(a1-6)]Man(b1-4)GlcNAc(b1-4)GlcNAc
# In short: as §1
# [18] = molecular target: Gal(b1-4)GlcNAc(b1-2)[Gal(b1-4)GlcNAc(b1-4)]Man(a1-3)[Gal(b1-4)GlcNAc(b1-2)[Gal(b1-4)GlcNAc(b1-6)]Man(a1-6)]Man(b1-4)GlcNAc(b1-4)GlcNAc
# In short: as §1
# [19] = molecular target: Gal(b1-4)GlcNAc(b1-2)[Gal(b1-4)GlcNAc(b1-4)]Man(a1-3)[GlcNAc(b1-4)][Gal(b1-4)GlcNAc(b1-2)Man(a1-6)]Man(b1-4)GlcNAc(b1-4)GlcNAc
# In short: as §1
# [20] = molecular target: Gal(b1-4)GlcNAc(b1-2)[Gal(b1-4)GlcNAc(b1-4)]Man(a1-3)[GlcNAc(b1-4)][Gal(b1-4)GlcNAc(b1-2)[Gal(b1-4)GlcNAc(b1-6)]Man(a1-6)]Man(b1-4)GlcNAc(b1-4)GlcNAc
# In short: as §1
# [21] = molecular target: Gal(b1-4)GlcNAc(b1-2)[Gal(b1-4)GlcNAc(b1-6)]Man(a1-6)[Gal(b1-4)GlcNAc(b1-2)Man(a1-3)]Man(b1-4)GlcNAc(b1-4)GlcNAc
# In short: as §1
# [22] = molecular target: Gal(b1-4)GlcNAc(b1-2)[Gal(b1-4)GlcNAc(b1-6)]Man(a1-6)[Gal(b1-4)GlcNAc(b1-2)Man(a1-3)]Man(b1-4)GlcNAc(b1-4)[Fuc(a1-6)]GlcNAc
# In short: as §1
# [23] = molecular target: Gal(b1-4)GlcNAc(b1-2)[Gal(b1-4)GlcNAc(b1-6)]Man(a1-6)[GlcNAc(b1-4)][Gal(b1-4)GlcNAc(b1-2)Man(a1-3)]Man(b1-4)GlcNAc(b1-4)GlcNAc
# In short: as §1
# [24] = molecular target: Gal(b1-4)GlcNAc(b1-2)[Gal(b1-4)GlcNAc(b1-6)]Man(a1-6)[GlcNAc(b1-4)][Gal(b1-4)GlcNAc(b1-2)[Gal(b1-4)GlcNAc(b1-4)]Man(a1-3)]Man(b1-4)GlcNAc(b1-4)[Fuc(a1-6)]GlcNAc
# In short: as §1
# [25] = molecular target: Gal(b1-4)GlcNAc(b1-3)Gal(b1-3)GalNAc
# In short: as §1
# [26] = molecular target: Gal(b1-4)GlcNAc(b1-3)Gal(b1-3)GlcNAc
# In short: as §1
# [27] = molecular target: Gal(b1-4)GlcNAc(b1-3)Gal(b1-4)Glc
# In short: as §1
# [28] = molecular target: Gal(b1-4)GlcNAc(b1-3)Gal(b1-4)GlcNAc
# In short: as §1
# [29] = molecular target: Gal(b1-4)GlcNAc(b1-3)Gal(b1-4)GlcNAc(b1-2)Man(a1-3)[Gal(b1-4)GlcNAc(b1-3)Gal(b1-4)GlcNAc(b1-2)Man(a1-6)]Man(b1-4)GlcNAc(b1-4)GlcNAc
# In short: as §1
# [30] = molecular target: Gal(b1-4)GlcNAc(b1-3)Gal(b1-4)GlcNAc(b1-2)Man(a1-3)[Gal(b1-4)GlcNAc(b1-3)Gal(b1-4)GlcNAc(b1-2)Man(a1-6)]Man(b1-4)GlcNAc(b1-4)[Fuc(a1-6)]GlcNAc
# In short: as §1
binder,measurement,setting,value
B1,glycan array binding signal (z-score),[1],-0.15
same,glycan array binding signal (z-score),[2],-0.111
same,glycan array binding signal (z-score),[3],-0.146
same,glycan array binding signal (z-score),[4],-0.94
same,glycan array binding signal (z-score),[5],0.175
same,glycan array binding signal (z-score),[6],1.24
same,glycan array binding signal (z-score),[7],-0.399
same,glycan array binding signal (z-score),[8],-0.077
same,glycan array binding signal (z-score),[9],-0.452
same,glycan array binding signal (z-score),[10],-0.216
same,glycan array binding signal (z-score),[11],3.74
same,glycan array binding signal (z-score),[12],-0.734
same,glycan array binding signal (z-score),[13],0.862
same,glycan array binding signal (z-score),[14],-0.437
same,glycan array binding signal (z-score),[15],4.65
same,glycan array binding signal (z-score),[16],-0.389
same,glycan array binding signal (z-score),[17],-1.03
same,glycan array binding signal (z-score),[18],-0.212
same,glycan array binding signal (z-score),[19],-0.191
same,glycan array binding signal (z-score),[20],0.745
same,glycan array binding signal (z-score),[21],-0.697
same,glycan array binding signal (z-score),[22],0.144
same,glycan array binding signal (z-score),[23],0.116
same,glycan array binding signal (z-score),[24],0.323
same,glycan array binding signal (z-score),[25],-0.185
same,glycan array binding signal (z-score),[26],-0.444
same,glycan array binding signal (z-score),[27],-0.849
same,glycan array binding signal (z-score),[28],0.214
same,glycan array binding signal (z-score),[29],1.77
same,glycan array binding signal (z-score),[30],-0.438
